PubChem BioAssay AID624296 (National Center for Advancing Translational Sciences (NCATS), 2012)
In all, about 350,000 compounds went through this assay and about 9,900 (2.8%) were called active. Inconclusive means that the source gave no clear call. Such entries were picked first, then a sample of the others. The call rests on the fitted dose curve; in most records, active means well fitted activation curve with a large enough effect; inconclusive means small, poorly fitted or top-dose-only effect; inactive means no such curve, though single readings can be large or run the other way. Potencies of inconclusive entries are left out as doubtful fits.
Potency means the concentration at half of the fitted maximal effect; tags describe the fitted curve by direction and shape.

Assay: A quantitative high throughput screen for small molecules that induce DNA re-replication in MCF 10a normal breast cells. Further: nearly all actives have a fitted effect of over 50% in size.
Settings: MCF 10A DNA re-replication, Hoechst nuclear intensity, 48 h; series mostly up to 46.1 µM
In the case of `CN1CCN(C(=O)c2ccc3c(c2)NC(=O)/C(=C/c2ccccc2)S3)CC1`, the Potency is reported as inconclusive [activator, single point].
In the case of `CCOc1cc(CNCCCN2CCOCC2)cc(Br)c1OCc1ccccc1Cl`, the Potency is reported as inconclusive [activator, partial curve, poor fit].
In the case of `Cc1ccc(C)c(S(=O)(=O)NCC(c2ccco2)N2CCc3ccccc3C2)c1` (stereo not given), the Potency is reported as inconclusive [activator, partial curve, poor fit].
In the case of `CC(=O)c1cccc(NC(=O)Nc2ccc3c(c2)CCC3)c1`, the Potency is reported as “inactive”.
With `COc1cccc(CN2CCN(S(=O)(=O)c3ccc(Cl)s3)CC2)c1` the Potency was “inactive”.
In the case of `O=C1N=c2ccccc2=C1c1sc(=S)n(-c2ccc(O)cc2)c1O`, the Potency is reported as “inactive”.
With `C=CC[C@@H](CC(=O)N[C@H](CO)Cc1ccccc1)C(=O)NCCOC(=O)[C@@H](CC=C)CC(=O)OC(C)(C)C` the Potency was “inactive”.
With `O=C(NCCS(=O)(=O)N1CCCCC1)c1ccccc1` the Potency was inconclusive [activator, single point].
With `Cc1ccccc1CNCCCSc1ncccn1` the Potency was “inactive”.
In the case of `CCOC(=O)C1=C(C(=O)OCC)N(Cc2ccccc2)CCC1=O`, the Potency is reported as “inactive”.
With `Cc1ccc(/C=N/n2c(COc3ccccc3)n[nH]c2=S)s1` the Potency was “inactive”.
In the case of `COC(=O)c1sccc1-c1ccc(C(=O)Nc2cccnc2)o1`, the Potency is reported as inconclusive [activator, partial curve, poor fit].
With `NS(=O)(=O)c1ccc(CCNC(=O)c2ccccc2Cc2ccccc2)cc1` the Potency was “inactive”.
In the case of `Cc1cc(C)cc(NC(=O)Cn2c(=O)oc3cc(S(=O)(=O)N4CCC(C)CC4)ccc32)c1`, the Potency is reported as active: 16.4 µM.
For `CN(C)CCN(C(=O)c1ccc(C(=O)c2ccccc2)cc1)c1nc2cc3c(cc2s1)OCCO3`, the Potency was “inactive”.
With `O=C(Cc1cccs1)Nc1ccc(-c2nc3ccccc3[nH]2)cc1` the Potency was “inactive”.
With `CCn1c(=O)n(CC)c2cc(N3CCCC3)c(NC(=O)c3ccccc3)cc21` the Potency was inconclusive [activator, single point].
With `Cc1ccc(NC(=O)CSC2=NCCN2)cc1` the Potency was active: 20.6 µM.
In the case of `Cc1ccc(NC(=O)CSc2nc3ccccc3c(=O)n2Cc2cccs2)cc1`, the Potency is reported as inconclusive [activator, partial curve, poor fit].
In the case of `CC(=O)c1cccc(NC(=O)Cn2nc(-c3ccc(Cl)cc3)ccc2=O)c1`, the Potency is reported as active: 0.58 µM.
For `O=C(O)c1ccc(N/N=C/c2cn(Cc3ccccc3F)c3ccccc23)cc1`, the Potency was active: 20.6 µM.
For `COc1ccccc1NC1=C(Cl)C(=O)OC1OC(=O)c1ccco1` (stereo not given), the Potency was inconclusive [activator, single point].
For `COc1ccc([N+](=O)[O-])cc1/C=N/NC(=O)CNC(=O)c1cccc(F)c1`, the Potency was “inactive”.
For `CCC1CCC(N2CCN(c3ccccc3F)CC2)CC1` (stereo not given), the Potency was “inactive”.
For `Cc1ccc2nc(N(CCCN(C)C)C(=O)c3ccc4ncsc4c3)sc2c1`, the Potency was inconclusive [activator, partial curve, poor fit].
In the case of `COc1cc(C2NC(=S)NC(C)=C2C(=O)c2ccccc2)ccc1O` (stereo not given), the Potency is reported as inconclusive [activator, single point].
For `COc1ccc(/C=C2\Cc3ccccc3C2=O)cc1OC`, the Potency was “inactive”.
In the case of `COc1ccc(O[C@H]2C=C[C@@H](c3ccccc3)O[C@@H]2COC(=O)CC/C(C)=N/O[C@H](C)c2cn([C@@H]3COC[C@H]3O)nn2)cc1`, the Potency is reported as inconclusive [activator, single point].
In the case of `N#Cc1c(NC(=O)CN2CCCCC2)sc2c1CCC2`, the Potency is reported as inconclusive [activator, partial curve, poor fit].
In the case of `COc1cc(NC(=O)CCN2CCN(c3ccccc3F)CC2)cc(OC)c1`, the Potency is reported as inconclusive [activator, single point].
With `CCn1c(CSc2nc3ccccc3s2)nc2ccccc21` the Potency was inconclusive [activator, single point].
With `CC(C)(C)OC(=O)n1cccc1/C=C1\c2ccccc2C(=O)N1c1ccccc1` the Potency was inconclusive [activator, partial curve, poor fit].
With `O=C1CCc2cc(NS(=O)(=O)c3ccccc3)cc3c2N1CCC3` the Potency was inconclusive [activator, full curve].
In the case of `O=C(Nc1ccc(Cl)cc1)NC1CCCCC1Cc1ccco1` (stereo not given), the Potency is reported as inconclusive [activator, single point].
In the case of `COC(=O)C1C(O)=C(C=Nc2ccc(N)cc2)C(=O)CC1(C)C` (stereo not given), the Potency is reported as inconclusive [activator, single point].
For `CCOc1cc(C(=S)N2CCOCC2)ccc1OS(=O)(=O)c1ccc(Br)cc1`, the Potency was inconclusive [activator, single point].
For `CC(C)Sc1nc(N2CCOCC2)c2c(c1C#N)CC(C)(C)N(C)C2`, the Potency was inconclusive [activator, single point].
With `CCOC(=O)c1c(-c2ccc(OC)cc2)csc1NC(=O)CSc1nnc(C)c(=O)[nH]1` the Potency was inconclusive [activator, single point].
For `O=C1CC(N(CCc2ccccc2)C(=S)Nc2ccccc2)C(=O)N1c1ccccc1` (stereo not given), the Potency was inconclusive [activator, single point].
With `CCN(CCO)c1ccc(NC(=S)Nc2cccc(S(=O)(=O)N(C)C)c2)cc1` the Potency was “inactive”.
With `CCCNc1ncnc2sc(C)c(C)c12` the Potency was inconclusive [activator, partial curve, poor fit].
In the case of `CCCCCCCCCCCCN1C/C(=C\C(=O)OCC)c2ccccc2S1(=O)=O`, the Potency is reported as inconclusive [activator, partial curve, poor fit].
For `CCCc1cc(-c2n[nH]c(C(=O)OCC)c2-c2cscn2)c(O)cc1O`, the Potency was inconclusive [activator, partial curve, poor fit].
With `CCn1c(=O)c(C(=O)Nc2ccccc2S(N)(=O)=O)c(O)c2ccccc21` the Potency was inconclusive [activator, single point].
With `COc1cccc2c1C(CO)N1C(C#N)C3CC(C(=O)O)C(C1C2)N3C` (stereo not given) the Potency was “inactive”.
